Assay results: paper PMC4336329 (PLoS ONE, 2015)
Hit rate of the full screen: of about 310,000 compounds, about 2,200 (0.71%) showed an effect of 50% or more. The effect is printed as a negative number. This is one part of the list.

Each compound was assayed against human ether-à-go-go-related gene (hERG) potassium channel (human, UniProt Q12809) (assay: primary screen, population patch clamp on CHO cells stably expressing hERG).
human ether-à-go-go-related gene (hERG) potassium channel, sequence (Q12809 whole entry, looked up): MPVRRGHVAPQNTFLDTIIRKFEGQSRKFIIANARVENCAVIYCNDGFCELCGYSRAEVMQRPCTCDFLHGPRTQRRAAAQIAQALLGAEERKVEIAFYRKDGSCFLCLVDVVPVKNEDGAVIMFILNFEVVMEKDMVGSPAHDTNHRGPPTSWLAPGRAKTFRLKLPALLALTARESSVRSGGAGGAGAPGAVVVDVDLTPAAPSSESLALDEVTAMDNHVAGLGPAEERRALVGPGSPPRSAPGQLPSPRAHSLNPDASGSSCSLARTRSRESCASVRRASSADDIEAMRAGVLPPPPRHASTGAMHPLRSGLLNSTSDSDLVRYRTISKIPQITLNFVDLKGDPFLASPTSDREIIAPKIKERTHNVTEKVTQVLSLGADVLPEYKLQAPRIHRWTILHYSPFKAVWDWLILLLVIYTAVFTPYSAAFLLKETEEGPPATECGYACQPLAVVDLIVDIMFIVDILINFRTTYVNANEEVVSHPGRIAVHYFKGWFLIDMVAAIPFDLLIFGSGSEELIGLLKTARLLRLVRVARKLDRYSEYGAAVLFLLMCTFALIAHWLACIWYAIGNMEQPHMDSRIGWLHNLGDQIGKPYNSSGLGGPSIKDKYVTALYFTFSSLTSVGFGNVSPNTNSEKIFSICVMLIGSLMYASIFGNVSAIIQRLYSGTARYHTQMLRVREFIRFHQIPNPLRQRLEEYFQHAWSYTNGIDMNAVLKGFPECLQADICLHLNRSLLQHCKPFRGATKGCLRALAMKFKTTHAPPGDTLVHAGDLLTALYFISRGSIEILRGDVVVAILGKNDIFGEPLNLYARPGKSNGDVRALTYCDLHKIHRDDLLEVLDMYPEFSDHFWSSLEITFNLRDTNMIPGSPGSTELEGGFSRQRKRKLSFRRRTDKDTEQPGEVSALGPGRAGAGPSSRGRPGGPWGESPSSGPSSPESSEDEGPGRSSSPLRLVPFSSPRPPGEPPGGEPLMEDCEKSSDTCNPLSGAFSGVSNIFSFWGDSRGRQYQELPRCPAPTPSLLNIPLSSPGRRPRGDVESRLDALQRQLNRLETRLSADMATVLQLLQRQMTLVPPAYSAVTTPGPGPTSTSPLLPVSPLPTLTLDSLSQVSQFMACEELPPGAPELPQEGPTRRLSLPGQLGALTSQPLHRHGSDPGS

Structure (SMILES) | hERG current change (%, negative = inhibition) at 1uM [%]
Cc1ccnc2nc(C(=O)NCc3ccccc3)nn12 | 15.8
O=C(NC1CCCC1)C(c1ccncc1)N(C(=O)Cc1cccs1)c1ccccc1 (stereo not drawn) | -6.88
CCOc1ccc(Br)cc1S(=O)(=O)Nc1ccc(Cl)c(S(=O)(=O)N(C)C)c1 | 10.8
COc1ccc(N2CCN(CCCn3c(=S)[nH]c4ncccc4c3=O)CC2)cc1 | 6.99
Cc1[nH]nc2cn[nH]c12 | 5.48
COc1ccc(S(=O)(=O)N(C)CC(=O)N2CCCC2)cc1Cl | 10.5
CN(C)[C@@H]1C(=O)C(C(N)=O)=C(O)[C@@]2(O)C(=O)C3=C(O)c4c(O)ccc(Cl)c4[C@@H](O)[C@H]3C[C@@H]12.Cl | -17.4
O=C(c1ccncc1)N1CCN(CCc2ccccc2)CC1 | 0.866
CCOc1ccc(C(=O)NC(=S)Nc2cccnc2)cc1[N+](=O)[O-] | 14.5
Cc1ccc(-c2nn(-c3ccccc3)cc2C2CC(c3cccs3)=NN2C(=O)CCCC(=O)O)cc1 (stereo not drawn) | 12.5
Cn1c(=O)c2c(nc(CN3CCCCC3)n2CCc2ccccc2)n(C)c1=O | 0.232
COc1ccc(CNc2ccc([N+](=O)[O-])cn2)cc1 | 5
O=C1c2ccccc2C(=O)N1COc1ccc(S(=O)(=O)N2CCOCC2)cc1[N+](=O)[O-] | 11.7
COc1cc(/C=N/NC(=O)CCC(=O)Nc2ccc(F)cc2)ccc1O | 16.4
COc1ccc(N(C(=O)c2ccco2)S(=O)(=O)c2ccccc2)cc1 | -2.61
CC(=O)NC1=NN(C(C)=O)C(c2ccccc2)S1 (stereo not drawn) | 13
C=CCNC(=S)NNC(=O)c1ccc(OCCC)cc1 | 11.1
COc1ccc(Cl)cc1C(=O)N/N=C/c1ccc(N2CCOCC2)cc1 | 7.83
COC(=O)Cc1cc(=O)n(-c2nc3ccccc3s2)[nH]1 | 2.88
Cc1ccccc1-n1c(-c2ccco2)nc2ccccc2c1=O | 4.35
COc1cc(C(=O)N2CCN(C3CCC(C)CC3)CC2)cc(OC)c1OC.O=C(O)C(=O)O (stereo not drawn) | 17.5
Cl.c1coc(CNCc2cccs2)c1 | 14.4
Nc1nc(-c2ccco2)nn1C(=O)c1ccccc1 | 20.7

Structure (SMILES) | hERG current change (%, negative = inhibition) at 1uM [%]
COc1ccc(S(=O)(=O)N2CCC(C(=O)N(C)Cc3ccc(C)o3)CC2)cc1OC | 3.56
CCOC(=O)Nc1ccc2ncn(C)c(=O)c2c1 | 17
CCc1ccc(C(=O)NCC2COc3ccccc3O2)o1 (stereo not drawn) | -8.4
O=C(NN1C(=O)/C(=C/c2cccs2)SC1=S)c1ccncc1 | 7.13
N#Cc1ccc(C(=O)OCCc2cc3ccccc3c(=O)o2)cc1 | -8.92
CCOc1ccc(-c2n[nH]c(C)c2-c2ccccc2OC)c(O)c1 | 23.1
CCOc1cc(C(=O)NCc2ccccc2)ccc1OCC(=O)N1CCOCC1 | 5.05
COc1cc(C)c(Br)cc1S(=O)(=O)N1CCOCC1 | 11
COc1ccccc1NC(=O)/C(C#N)=C/c1cccn1C | 9.4
C[C@@]12C(=O)N(c3cccc(Cl)c3)C(=O)N1[C@H](c1ccc(Cl)cc1)[C@@H]1C(=O)N(C3CCCCC3)C(=O)[C@@H]12 | 10.5
CCN(c1ccccc1)S(=O)(=O)c1cc2c(cc1C)n(C)c(=O)c(=O)n2C | -16.4
O=C(COc1ccccc1)N1CCN(C(=O)c2ccco2)CC1 | 5.18
COc1cccc(C2C(C(=O)c3cc4ccccc4o3)=C(O)C(=O)N2CCN2CCOCC2)c1 (stereo not drawn) | 11.6
C=CCN(C(=O)c1csnn1)C(C(=O)NC1CCCC1)c1ccccc1F (stereo not drawn) | 11.3
Cc1cccc(NC(=O)COc2coc(CN3CCc4ccccc4C3)cc2=O)c1 | 16.9
Cc1ccc(NC(=O)C(C)NS(=O)(=O)c2ccc(F)cc2)cc1C (stereo not drawn) | 4.85
O=C(CC(=O)Nc1ccc(Cl)cc1Cl)Nc1ccc(Cl)cc1Cl | 18.7
O=[N+]([O-])c1ccccc1S(=O)(=O)NC1CC2CCC1C2 (stereo not drawn) | 8.32
FC(F)(F)c1ccccc1-n1c(-c2ccco2)n[nH]c1=S | 15.4
CC(C)C(=O)Nc1nc(-c2ccc(S(=O)(=O)N3CCOCC3)cc2)cs1 | 4.67
CCOC(=O)CCC(NC(=O)CCCC(=O)NC(CCC(=O)OCC)C(=O)OCC)C(=O)OCC (stereo not drawn) | 13.2
CC(C)c1ccccc1OCCNS(C)(=O)=O | -1.46
CC1CCCCN1Cc1nc2ccccc2c(=O)[nH]1 (stereo not drawn) | 11.7

Structure (SMILES) | hERG current change (%, negative = inhibition) at 1uM [%]
COc1ccc(C2/C=C\CN(C(=O)Oc3ccc(C(F)(F)F)cc3)CC(=O)N2Cc2ccc(F)cc2)cc1 (stereo not drawn) | 2.11
CCOC(=O)N1CCN(Cc2nc(Cc3cccc(C(F)(F)F)c3)no2)CC1 | 3.72
COc1ccccc1N1C(=O)N(CC(=O)C(C)(C)C)c2ccccc2S1(=O)=O | 12.9
c1ccc(CCc2nc(-c3ccccn3)no2)cc1 | 5.84
O=C(Nc1ccc([N+](=O)[O-])cn1)C1CC2CCC1C2 (stereo not drawn) | 7.87
C/[N+]([O-])=C/c1c(OCc2ccc(Cl)cc2Cl)ccc2ccccc12 | 7.35
Cc1ccc(NS(=O)(=O)c2ccc(N3CCN(c4ccc(O)cc4)CC3)c([N+](=O)[O-])c2)c(C)c1 | 12.3
CN(C)CCNC(=O)c1c(CSc2ccc(Cl)cc2)noc1C(=O)NCc1ccccc1 | 7.72
CN(C(=O)COC(=O)COc1ccc(Cl)cc1Cl)c1c(N)n(Cc2ccccc2)c(=O)[nH]c1=O | 20.9
CCCN1CCN(C(=S)NCc2ccc(Cl)cc2)CC1 | -6.02
CCCCS/C(N)=N/N=C/c1cc(C)ccc1O | 5.04
COc1ccccc1NC(=O)Nc1cc(F)ccc1F | 21.5
COc1ccc(CCN2CC(C(=O)NC3CCCCC3)CC2=O)cc1OC (stereo not drawn) | 14
Cc1cc(N2CCC(C)CC2)n2nc(C)c(-c3ccccc3)c2n1 | 9.35
COc1ccc(-c2nc(CS(=O)CC(=O)NC3CCCC3)c(C)o2)cc1OC (stereo not drawn) | 8.08
O=C(Nc1ccccc1)OCCNC(=O)c1cccc(Br)c1 | 8.74
Cc1ccc(C(=O)COC(=O)CN2C(=O)C3C4C=CC(C4)C3C2=O)cc1[N+](=O)[O-] (stereo not drawn) | 20.1
CCOC(=O)Cc1csc(NC(=O)CN2CCCCC2)n1 | 15.6
CCOc1nc(-c2ccccc2Cl)nc2ccccc12 | 4.21
COc1ccc(/C=N/N2C(C)CCCC2C)cc1O (stereo not drawn) | 11.6
O=C(Cn1nc(C(F)F)cc1C1CC1)N1CCCC1 | 9.01
COc1ccc(NC(=O)Cn2c(C)cc(=O)c3ccccc32)cc1 | 13.4
CCCc1n[nH]c2c1/C(=N\OCC)CC(C)(C)C2 | 12.8

Structure (SMILES) | hERG current change (%, negative = inhibition) at 1uM [%]
Nc1ncnc(N)c1N=Nc1ccccc1 | 9.62
O=C(NCc1ccncc1)C1CCCN1S(=O)(=O)c1ccc(Cl)cc1 (stereo not drawn) | 5.02
NNC(=O)c1ccc(COc2ccc([N+](=O)[O-])cc2)o1 | 9.25
Cc1ccsc1/C=N/NC(=O)C1C(=O)NCC1c1ccccc1 (stereo not drawn) | 2.72
Cc1noc(C)c1COC(=O)CCCc1c[nH]c2ccccc12 | 8.74
CC(C)CC(=O)N1CCN(C(=O)c2ccc(-c3ccccc3)cc2)CC1 | 5.67
O=C(CSc1nnc(NC(=O)c2ccc3c(c2)OCO3)s1)NCc1ccco1 | 8
Cc1nonc1CN(C)C(=O)c1ccc(OC2CCN(C(=O)c3cccnc3)CC2)cc1 | 21.1
COc1cccc(CC(=O)Nc2cccc3ccccc23)c1 | -0.288
O=C(NCCCN1CCCCCC1)c1ccc2c(c1)NC(=O)C(N1CCOCC1)S2 (stereo not drawn) | 10
CCCCCSc1nc2c(c(=O)[nH]c(=O)n2C)n1C(C)C | 7.3
CCNc1ccc(C(=O)NN=C2CCCC2)cc1[N+](=O)[O-] | 5.15
COc1ccc(OCc2cc(C(=O)N(C)Cc3nccn3C)no2)c2ccccc12 | 2.82
NC(=O)C1(N2CCCCC2)CCN(Cc2nc(-c3cccs3)no2)CC1 | 9.61
O=C(Cc1cccc(C(F)(F)F)c1)Nc1cccc(S(=O)(=O)N2CCCC2)c1 | 16.9
CN=c1scc(-c2cccs2)n1/N=C/c1ccccc1O | 9.53
Cc1ccc(/C=N/n2c(C)nc3ccccc3c2=O)s1 | 3.22
Cc1ccc(-n2c(=S)sc3c(=O)n(-c4ccc(F)cc4)c(SCC(=O)O)nc32)cc1C | 12
CCN(CC)CCCn1c2c(c(SCC(=O)Nc3nc(C)cs3)nc1=O)CCC2 | -1.1
O=C(c1n[nH]c(=O)c2ccccc12)N1CCN(C2c3ccccc3-c3ccccc32)CC1 | 11.4
O=C(CSc1ccc2c(c1)OCCO2)Nc1ccc(Br)cn1 | 11.8
